# Some of the results follow. The data describe in vitro nicking of single-stranded DNA by Rep domains (3 µM enzyme, 1 h, 37 °C); shown is the middle of each 90-letter strand. Uncut reads are compared with the no-enzyme pool on a log2 scale; the lower, the more was cut; hits are not called. Because reads are shares of a total, they shift together; where an enzyme cuts many sequences, the uncut ones exceed 0.
# System: T1, Rep nickase domain of tomato golden mosaic virus
# T1 sequence (residues 1-124 of Rep, tag left off): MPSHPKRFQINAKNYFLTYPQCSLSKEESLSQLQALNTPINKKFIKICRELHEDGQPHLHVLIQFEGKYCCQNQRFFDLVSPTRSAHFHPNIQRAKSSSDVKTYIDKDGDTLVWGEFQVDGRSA
# Experiment: uncleaved DNA left, log2 of reads against the no-enzyme library (log2 ratio); higher = less cleavage (more negative = more Rep cleavage of the k-mer); sequences stand for … in CTCGTCCG…ACCGGAGA
# Procedure: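 A pool of 90-nt single-stranded DNAs with seven random bases just before the constant AC of the nick site (name = the seven bases) was cut by 3 µM recombinant His6-SUMO-tagged Rep nickase domain (300 nM DNA, 50 mM HEPES pH 8.0, 50 mM NaCl, 1 mM MnCl2, 1 h, 37 °C, three replicates). Uncut DNA was amplified and sequenced.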
row,Sequence,uncleaved DNA left (log2)
1,CGAGTGC,-0.172
2,AGTTGGA,-0.0484
3,CCGGGGT,0.0119
4,TCGCCCG,-0.069
5,AGACTGC,0.0325
6,ACTGCTC,-0.0146
7,GGTATTG,-0.0307
8,CCTTCCG,-0.109
9,GGCATTG,-0.00531
10,TGACCTC,0.0402
11,AATTGCG,0.123
12,CACCGTG,-0.0161
13,TTCAGCG,0.053
14,TGTGGCA,0.112
15,AGCCGGT,0.0679
16,TTGGCAA,0.0192
17,AGTCAGT,0.0581
18,CTGAAAT,-0.111
19,TCACACA,0.0193
20,TTCTGAG,0.132

row,Sequence,uncleaved DNA left (log2)
1,AGGTTTA,0.0312
2,CGCTTAC,-0.192
3,TGCCCAT,-0.09
4,GCTGGTA,-0.0604
5,GATGTCC,-0.194
6,GATGTGG,-0.0246
7,GCAACTT,0.0614
8,AGAGCGT,0.205
9,TTATTTT,-2.87
10,CTAGGTG,0.124
11,ACCCCAG,-0.124
12,TAGGGCA,0.104
13,TATCCGT,-0.0291
14,CGAGAAC,-0.136
15,TCTTGCA,-0.191
16,TCCTCAA,-0.0539
17,TTCTAGC,0.128
18,GGCTTAT,-0.122
19,TGCTGAT,-0.0419
20,ACCTTCT,-0.0475
